# Test results from PMC12820563.
# The list shows a part of the results. The list includes weakly bound sequences.
# Molecular target: T1, MBP-FoxP3dN (UniProt Q99JB6)
# T1 sequence: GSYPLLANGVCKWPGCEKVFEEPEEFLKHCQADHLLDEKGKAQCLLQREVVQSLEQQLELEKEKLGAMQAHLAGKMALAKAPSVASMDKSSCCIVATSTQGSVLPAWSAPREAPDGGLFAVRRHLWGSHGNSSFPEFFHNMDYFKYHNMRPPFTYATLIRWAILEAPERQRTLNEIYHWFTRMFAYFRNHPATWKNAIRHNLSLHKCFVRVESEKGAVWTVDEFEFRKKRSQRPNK
# Assay: PD-seq (MBP pull-down with sequencing)
# Conditions: 20 mM Tris-HCl pH 7.5, 100 mM NaCl, 1.5 mM MgCl2, 0.4 uM protein, 0.1 uM dsDNA library, 30 min, room temperature, amylose pull-down; high values mean tight binding; double strand, one strand shown
row,Sequence,binding signal (RPM ratio (pull-down/input))
1,GATGATTGTTCTCCCAGCTGATGAATTTCGATTATCGAGTAAACAAATTTTCCTAATCTTTCTGTTCAAGCGCCATCTAC,2.02
2,GATGATTGTTCTCCCAGCTGATGAATTTTACCCGTCGAGTAAACAAATTTTCCTAATCTTTCTGTTCAAGCGCCATCTAC,0.21
3,GATGATTGTTCTCCCAGCTGATGAATTGCCACTGTCGAGTAAACAAATTTTCCTAATCTTTCTGTTCAAGCGCCATCTAC,1.22
4,GATGATTGTTCTCCCAGCTGATGAATTTACGCCTTCGAGTAAACAAATTTTCCTAATCTTTCTGTTCAAGCGCCATCTAC,2.92
5,GATGATTGTTCTCCCAGCTGATGAATTATACAAGTCGAGTAAACAAATTTTCCTAATCTTTCTGTTCAAGCGCCATCTAC,0.571
6,GATGATTGTTCTCCCAGCTGATGAATTCAGAGGATCGAGTAAACAAATTTTCCTAATCTTTCTGTTCAAGCGCCATCTAC,0.205
7,GATGATTGTTCTCCCAGCTGATGAATTTCGACTCTCGAGTAAACAAATTTTCCTAATCTTTCTGTTCAAGCGCCATCTAC,1.85
8,GATGATTGTTCTCCCAGCTGATGAATTGCCTCAATCGAGTAAACAAATTTTCCTAATCTTTCTGTTCAAGCGCCATCTAC,0.734
9,GATGATTGTTCTCCCAGCTGATGAATTGTGGGGGTCGAGTAAACAAATTTTCCTAATCTTTCTGTTCAAGCGCCATCTAC,0.783
10,GATGATTGTTCTCCCAGCTGATGAATTGAGGGCTTCGAGTAAACAAATTTTCCTAATCTTTCTGTTCAAGCGCCATCTAC,0.368
11,GATGATTGTTCTCCCAGCTGATGAATTCGACTGATCGAGTAAACAAATTTTCCTAATCTTTCTGTTCAAGCGCCATCTAC,0.327
12,GATGATTGTTCTCCCAGCTGATGAATTGAGCAGGTCGAGTAAACAAATTTTCCTAATCTTTCTGTTCAAGCGCCATCTAC,0.434
13,GATGATTGTTCTCCCAGCTGATGAATTCGGACGTTCGAGTAAACAAATTTTCCTAATCTTTCTGTTCAAGCGCCATCTAC,0.358
14,GATGATTGTTCTCCCAGCTGATGAATTTGCGTTGTCGAGTAAACAAATTTTCCTAATCTTTCTGTTCAAGCGCCATCTAC,3.64
15,GATGATTGTTCTCCCAGCTGATGAATTTGTTTCTTCGAGTAAACAAATTTTCCTAATCTTTCTGTTCAAGCGCCATCTAC,6.78
16,GATGATTGTTCTCCCAGCTGATGAATTTGCACAGTCGAGTAAACAAATTTTCCTAATCTTTCTGTTCAAGCGCCATCTAC,0.457

row,Sequence,binding signal (RPM ratio (pull-down/input))
1,GATGATTGTTCTCCCAGCTGATGAATTTCCTTCATCGAGTAAACAAATTTTCCTAATCTTTCTGTTCAAGCGCCATCTAC,0.372
2,GATGATTGTTCTCCCAGCTGATGAATTAGATGTCTCGAGTAAACAAATTTTCCTAATCTTTCTGTTCAAGCGCCATCTAC,2.35
3,GATGATTGTTCTCCCAGCTGATGAATTACCGATTTCGAGTAAACAAATTTTCCTAATCTTTCTGTTCAAGCGCCATCTAC,0.455
4,GATGATTGTTCTCCCAGCTGATGAATTCCAAAGATCGAGTAAACAAATTTTCCTAATCTTTCTGTTCAAGCGCCATCTAC,0.179
5,GATGATTGTTCTCCCAGCTGATGAATTAAGCAACTCGAGTAAACAAATTTTCCTAATCTTTCTGTTCAAGCGCCATCTAC,5.03
6,GATGATTGTTCTCCCAGCTGATGAATTTTCGGACTCGAGTAAACAAATTTTCCTAATCTTTCTGTTCAAGCGCCATCTAC,0.241
7,GATGATTGTTCTCCCAGCTGATGAATTCCCGCTCTCGAGTAAACAAATTTTCCTAATCTTTCTGTTCAAGCGCCATCTAC,0.343
8,GATGATTGTTCTCCCAGCTGATGAATTCCCGAGATCGAGTAAACAAATTTTCCTAATCTTTCTGTTCAAGCGCCATCTAC,0.222
9,GATGATTGTTCTCCCAGCTGATGAATTCGCGGCTTCGAGTAAACAAATTTTCCTAATCTTTCTGTTCAAGCGCCATCTAC,0.373
10,GATGATTGTTCTCCCAGCTGATGAATTGGCTTATTCGAGTAAACAAATTTTCCTAATCTTTCTGTTCAAGCGCCATCTAC,2.11
11,GATGATTGTTCTCCCAGCTGATGAATTAGCAACATCGAGTAAACAAATTTTCCTAATCTTTCTGTTCAAGCGCCATCTAC,2.78
12,GATGATTGTTCTCCCAGCTGATGAATTTTTCAGCTCGAGTAAACAAATTTTCCTAATCTTTCTGTTCAAGCGCCATCTAC,0.214
13,GATGATTGTTCTCCCAGCTGATGAATTTGTATAATCGAGTAAACAAATTTTCCTAATCTTTCTGTTCAAGCGCCATCTAC,4.58
14,GATGATTGTTCTCCCAGCTGATGAATTTCGCCGTTCGAGTAAACAAATTTTCCTAATCTTTCTGTTCAAGCGCCATCTAC,1.36
15,GATGATTGTTCTCCCAGCTGATGAATTTCTGATATCGAGTAAACAAATTTTCCTAATCTTTCTGTTCAAGCGCCATCTAC,0.373
16,GATGATTGTTCTCCCAGCTGATGAATTTCAGGCATCGAGTAAACAAATTTTCCTAATCTTTCTGTTCAAGCGCCATCTAC,0.61
